Data taken from paper PMC4336329 (PLoS ONE, 2015).
The whole screen tested about 310,000 compounds, of which about 14,000 (4.5%) showed an effect of 50% or more. Effects have a minus sign here. Some of the results follow.

Biological target: human ether-à-go-go-related gene (hERG) potassium channel (human, UniProt Q12809)
Assay: primary screen, population patch clamp on CHO cells stably expressing hERG
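Note: peak tail current of the secondary pulse compared with the same well before compound.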

Sequence of human ether-à-go-go-related gene (hERG) potassium channel (Q12809 whole entry, looked up): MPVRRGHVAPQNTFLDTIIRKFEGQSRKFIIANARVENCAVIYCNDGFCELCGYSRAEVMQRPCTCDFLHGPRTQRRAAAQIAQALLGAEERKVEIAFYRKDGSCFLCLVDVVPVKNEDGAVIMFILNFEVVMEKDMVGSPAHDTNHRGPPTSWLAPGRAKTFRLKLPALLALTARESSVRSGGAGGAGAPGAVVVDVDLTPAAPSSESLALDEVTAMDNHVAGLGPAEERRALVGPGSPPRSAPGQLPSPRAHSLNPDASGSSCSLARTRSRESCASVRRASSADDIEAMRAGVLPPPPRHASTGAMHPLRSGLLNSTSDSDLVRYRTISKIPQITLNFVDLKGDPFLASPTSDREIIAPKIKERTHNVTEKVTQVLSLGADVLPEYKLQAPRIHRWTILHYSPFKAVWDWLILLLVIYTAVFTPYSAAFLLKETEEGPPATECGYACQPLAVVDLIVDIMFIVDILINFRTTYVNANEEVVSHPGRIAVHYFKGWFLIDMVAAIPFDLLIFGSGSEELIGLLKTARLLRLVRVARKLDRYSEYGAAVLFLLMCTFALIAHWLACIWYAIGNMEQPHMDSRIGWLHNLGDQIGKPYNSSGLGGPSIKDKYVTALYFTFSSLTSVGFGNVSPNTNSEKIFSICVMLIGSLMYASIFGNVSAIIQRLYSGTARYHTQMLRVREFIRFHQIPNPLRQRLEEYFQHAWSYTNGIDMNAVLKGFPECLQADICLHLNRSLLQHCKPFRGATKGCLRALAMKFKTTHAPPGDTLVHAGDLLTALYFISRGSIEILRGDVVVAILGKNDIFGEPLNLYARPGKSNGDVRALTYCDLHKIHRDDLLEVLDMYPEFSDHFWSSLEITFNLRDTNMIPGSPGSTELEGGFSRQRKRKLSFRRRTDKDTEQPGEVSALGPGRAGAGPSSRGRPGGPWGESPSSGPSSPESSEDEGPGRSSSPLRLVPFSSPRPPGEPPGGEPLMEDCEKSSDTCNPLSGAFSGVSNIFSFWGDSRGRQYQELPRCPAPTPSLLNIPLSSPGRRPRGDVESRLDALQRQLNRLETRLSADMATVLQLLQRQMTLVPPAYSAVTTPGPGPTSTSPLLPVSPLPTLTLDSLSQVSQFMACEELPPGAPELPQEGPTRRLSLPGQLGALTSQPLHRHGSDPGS

Row | Compound | hERG current change (%, negative = inhibition) at 10uM [%]
1 | CCOc1ccc(S(=O)(=O)N2CCC(C(=O)NC3CCCC3)CC2)cc1 | 1.98
2 | CC(C)(C)NC(=O)C1CCN(C(=O)c2ccc(-c3ccccc3)cc2)CC1 | -13
3 | Cc1ccc(C(=O)Nc2ccc(OCc3ccccc3)cc2)cc1[N+](=O)[O-] | 0.879
4 | COc1ccc(F)cc1C(=O)C1CCCN(C(=O)CSc2ccccn2)C1 (centres unmarked) | -7.26
5 | COc1cccc(NC2=CC(=O)CC(C)(C)C2)c1 | 6.99
6 | CCC(=O)Nc1ccc(C(=O)NNC(=O)COc2cccc(C)c2)cc1 | 1.84
7 | N#CNC(=Nc1ccc(Cl)cc1)Oc1ccccc1 | -3.15
8 | CCOC(=O)COc1ccc(Br)cc1C1NC(=O)NC(C)=C1C(=O)NCc1ccccc1 (centres unmarked) | -14.8
9 | COc1ccc(C(=O)N/N=C/c2ccc(OC)c(COc3ccccc3)c2)cc1 | -26.1
10 | O=C(NCc1ccc(F)cc1F)Nc1cnccc1C(F)(F)F | 3.31
11 | COc1ccc(N(CC(=O)Nc2ccccc2C(=O)O)S(=O)(=O)c2ccc(C)c([N+](=O)[O-])c2)cc1 | 19.9
12 | O=C(CSc1nnc2ccc(-c3ccccc3)nn12)NCC1CCCO1 (centres unmarked) | -5.44
13 | COc1cccc(-c2cccc(NC(=O)C3CCN(Cc4ccc(C)o4)CC3)c2)c1 | -39.4
14 | COc1ccccc1C(=O)NCC(=O)OCC(=O)c1ccc(Cl)s1 | 8.65
15 | COCCn1c(SCC(=O)NCc2ccco2)nnc1-c1c[nH]c2ccccc12 | 4.06
16 | CCOc1ccc(OCC)c(N=c2oc3c(C)ncc(CO)c3cc2C(N)=O)c1 | 3.76
17 | CN1CCc2nc3sc(C(=O)NC(C)(C)C)c(N)c3cc2C1 | 0.483
18 | Cc1c(C(=O)N2CCC(n3nccc3NC(=O)C3CC3)CC2)[nH]c2ccc(Cl)cc12 | -59.4
19 | CC1(C)CN=C(Nc2ccccc2C(F)(F)F)S1 | 15.1
20 | CC(C)n1cc(/C(N)=N/O)c(=O)n(Cc2ccccc2)c1=O | -5.33
21 | Cc1cc(C(=O)N2CCCc3ccccc32)ccc1[N+](=O)[O-] | -13.9
22 | CC1CCOC2(O1)C(=O)N(CN1CCN(c3cccc(Cl)c3)CC1)c1ccccc12 (centres unmarked) | 9.18
23 | Cc1ccc(N(CCC(=O)NC(C)(C)C)S(=O)(=O)c2ccc(C)cc2)cc1 | -7.84

Row | Compound | hERG current change (%, negative = inhibition) at 10uM [%]
24 | CN(C)c1ccc(/C=N/NC(=O)c2ccccc2)cc1 | 10.9
25 | CC1=NN(c2ccc(C)c(C)c2)C(=O)/C1=C\C=C\c1ccc([N+](=O)[O-])o1 | 12.7
26 | COCCCNC(=S)N/N=C/c1ccc(N(C)C)cc1Cl | 9.74
27 | Cc1ccc(NC(=O)CSc2nncs2)cc1Cl | 5.51
28 | N#Cc1ccc(CSc2nnc(NC(=O)c3ccc4ncsc4c3)s2)cc1 | 10.3
29 | O=[N+]([O-])c1cnccc1Nc1ccccc1 | -6.35
30 | CCC(=NCCO)c1c(O)n(-c2ccc(Cl)cc2)c(=O)[nH]c1=O | 15.5
31 | N#Cc1cc2cc3c(cc2nc1N1CCOCC1)OCO3 | 6.87
32 | CCOc1cc(OCC)cc(C(=O)NCCCN2CCOCC2)c1 | -0.196
33 | CSc1nc(-c2ccc(N(C)C)cc2)c(C#N)c(=O)n1C | -6.91
34 | COc1ccccc1N1CCN(c2nc3ccccn3c(=O)c2C=O)CC1 | 2.35
35 | O=C(NCCc1ccccc1)C1CCN(S(=O)(=O)N2CCCC2)CC1 | 17.2
36 | CS(=O)(=O)c1ccc2c(c1)sc1nc(=O)c(/C=C3/C=CC(=O)C(O)=C3)c(N)n12 | 23.1
37 | CCc1cc(CNC(=O)CCc2nnc(CCCc3ccccc3)o2)on1 | -15.7
38 | CC(C)c1ccc(-c2nn(-c3ccccc3)cc2C2C(C#N)=C(N)OC3=C2C(=O)CC(C)(C)C3)cc1 (centres unmarked) | -11.2
39 | O=C(CSc1nnc(-c2cccnc2)o1)Oc1ccccc1 | 1.89
40 | COc1ccccc1CNC(=O)c1nccnc1CO | 5.79
41 | COCCC1CCCCN1Cc1cn(-c2ccccc2)nc1-c1ccc2c(c1)OCO2 (centres unmarked) | -55.8
42 | N#CC1=C2SCC(O)(c3ccccc3)N2C(=O)CC1c1ccccc1F (centres unmarked) | -15.2
43 | COc1ccccc1-c1nnc(NC(=O)c2ccc(S(=O)(=O)N(C)C)cc2)o1 | -2.44
44 | CC(=O)N1CCN(c2cc3c(cc2F)c(=O)c(C(=O)O)cn3C2CC2)CC1 | 8.31
45 | COc1ccc(CNc2oc(Cc3cccc4ccccc34)nc2C#N)cc1 | 6.28
46 | CCc1ccc(NC(=S)N(CCCN2CCOCC2)Cc2ccccn2)cc1 | -56.3

Row | Compound | hERG current change (%, negative = inhibition) at 10uM [%]
47 | CC(C)(C)C(=O)NC(=S)Nc1ccccc1F | 3.29
48 | O=C(c1cc(F)ccc1F)C1CCCN(Cc2cccc(Cl)c2)C1 (centres unmarked) | 4.01
49 | Cc1nc(NC(=O)/C=C/c2ccccc2)sc1C(=O)Nc1ccccc1 | 17.2
50 | COc1ccc2[nH]c(C)c(CCN3C(=O)C4C5C=CC(C5)C4C3=O)c2c1 (centres unmarked) | 6.01
51 | COc1ccccc1N(CC(=O)NCC1CCCO1)C(=O)CNS(=O)(=O)c1ccc(Cl)cc1 (centres unmarked) | 3.24
52 | CC(=O)N1CC[n+]2c(-c3ccc(Cl)cc3Cl)csc21.[Br-] | -21.5
53 | COc1cccc(-c2nc(N3CCN(c4ccccc4)CC3)c3ccccc3n2)c1O | 0.912
54 | CC(=O)Nc1ccc(SC[C@H](Cc2ccccc2)N2CCN(CC(C)C)CCC2=O)cc1 | -44.2
55 | C#CCOCCOCCOCCNc1nc(N2CCOCC2)nc(N2CCN(C(=O)[C@H](CCCCN)n3cc([C@@H](N)CC(C)C)nn3)CC2)n1.Cl | 3.88
56 | COc1ccc(CCNC(=O)Cc2cccc(C(F)(F)F)c2)cc1OC | 5.75
57 | O=C1CC(c2ccccc2)Cc2nc3ncnn3cc21 (centres unmarked) | 3.72
58 | Cc1ccc(N2C(=O)CS(=O)(=O)CC2=O)cc1 | 22.9
59 | O=S(=O)(Cc1nnnn1-c1ccc(Br)cc1)c1ccc(F)cc1 | 8.04
60 | CSCCC(NC=C1C(=O)OC(C)(C)OC1=O)C(=O)O (centres unmarked) | 19.4
61 | C=C1CCN(C(C(=O)OC)C(C)C)S(=O)(=O)c2ccccc21 (centres unmarked) | 4.06
62 | FC(F)(F)c1nc2ncc(Cl)cc2[nH]1 | -6.97
63 | CC(=O)Oc1ccc(C(=O)c2ccccc2)c(OC(C)=O)c1 | -11.9
64 | Nc1ncnc(Nc2cc(C(F)(F)F)cc(C(F)(F)F)c2)n1 | 5.24
65 | CC(=O)N(c1ccccc1)C1CC(C)N(C(=O)c2ccccc2)c2ccccc21 (centres unmarked) | -5.97
66 | Cc1cccc(NC(=S)N2CCC(NC(=O)C3CCCCC3)CC2)c1 | 20.4
67 | COc1ccc(-c2nc(C3CCCCC3)c3cc(OC)ccc3n2)cc1 | 3.12
68 | C/C(=N\NC(=O)C(O)c1ccccc1)c1ccc(C)s1 (centres unmarked) | 9.56
69 | COc1ccc(OC)c(CNn2c(-c3cccc(C)c3)nc3ccccc3c2=O)c1 | 6.92

Row | Compound | hERG current change (%, negative = inhibition) at 10uM [%]
70 | COc1ccc(CCNC(=O)c2cc3ccccn3n2)c(OC)c1OC | -3.41
71 | CCn1ccnc1CN(C)Cc1nc(-c2ccc3c(c2)OCO3)no1 | -2.93
72 | Oc1ccccc1Cn1c(-c2ccccc2O)nc2ccccc21 | 6.27
73 | Cc1cccc(C(C)C)c1NC(=O)COC(=O)c1cc2ccccc2oc1=O | -25.1
74 | CC(C)n1c(=O)[nH]c2ccccc21 | 13
75 | C=C1c2cc3c(cc2NC(=S)N1Cc1ccccc1)OCO3 | -4.28
76 | O=C(OC(C(=O)NC1CCCC1)c1ccccc1F)c1ccco1 (centres unmarked) | 5.25
77 | O=C(NC12CC3CC(CC(C3)C1)C2)c1cccnc1Cl | 18.1
78 | C/C=C/c1ccc(OCCCCN2CCN(CC)CC2)c(OC)c1.O=C(O)C(=O)O | -29.5
79 | Clc1ccc(/C=N/N2CCN(Cc3ccccc3)CC2)cc1 | -5.2
80 | CC(NC(=O)C1CCCCC1)C(c1cccs1)N1CCOCC1 (centres unmarked) | 2.17
81 | Cc1cc(C)nc(N/N=C2/CCSc3ccc(F)cc32)n1 | 6.74
82 | COc1cc(C(=O)n2cnc3ccccc32)c([N+](=O)[O-])cc1OC | 4.75
83 | Cc1ccc(S(=O)(=O)N2CCOCC2)cc1NC(=O)CSc1nccn1C | -0.154
84 | CC(=O)Nc1cccc(/C(C)=N/NC(=O)c2ccc(NS(=O)(=O)c3cccs3)cc2)c1 | 0.419
85 | c1ccc(-c2nc3cccnc3nc2-c2ccccc2)cc1 | -6.36
86 | Cc1ccc(CNC(=O)CCSCCC(=O)NCc2ccc(C)cc2)cc1 | 7.08
87 | Cc1cccc(NC(=O)CCC(=O)c2cccs2)n1 | 12
88 | Cc1ccccc1NC(=O)Cc1nc(COC(=O)/C=C/c2ccccc2)cs1 | -15.3
89 | O=C(c1cc2ncc(CCCl)cn2n1)N1CCCCCC1 | 8.53
